From PubChem BioAssay AID2147 (National Center for Advancing Translational Sciences (NCATS), 2009)
The campaign covered roughly 230,000 compounds. About 3,600 (1.6%) were called active. Inconclusive results, whose numbers are uncertain, are shown with a selection of clear calls. The call rests on the fitted dose curve; in most records, active means well fitted inhibition curve with a large enough effect (not every such curve was filed as active); inconclusive means small, poorly fitted or top-dose-only effect, or another doubt; inactive means no such curve, though single readings can be large or run the other way. Potencies beside an inconclusive call are fits to weak or partial responses and may not hold up.

These molecules were tested against Lysine-specific demethylase 4E (Homo sapiens) (UniProt B2RXH2) (assay: qHTS Assay for Inhibitors of Human Jumonji Domain Containing 2E (JMJD2E)). Conditions: JMJD2E catalytic domain, FDH-coupled NADH fluorescence (FDH is formaldehyde dehydrogenase); series mostly up to 57.1 µM.
Chain of UniProt B2RXH2 (B2RXH2 whole entry, looked up, the tested form may be a part): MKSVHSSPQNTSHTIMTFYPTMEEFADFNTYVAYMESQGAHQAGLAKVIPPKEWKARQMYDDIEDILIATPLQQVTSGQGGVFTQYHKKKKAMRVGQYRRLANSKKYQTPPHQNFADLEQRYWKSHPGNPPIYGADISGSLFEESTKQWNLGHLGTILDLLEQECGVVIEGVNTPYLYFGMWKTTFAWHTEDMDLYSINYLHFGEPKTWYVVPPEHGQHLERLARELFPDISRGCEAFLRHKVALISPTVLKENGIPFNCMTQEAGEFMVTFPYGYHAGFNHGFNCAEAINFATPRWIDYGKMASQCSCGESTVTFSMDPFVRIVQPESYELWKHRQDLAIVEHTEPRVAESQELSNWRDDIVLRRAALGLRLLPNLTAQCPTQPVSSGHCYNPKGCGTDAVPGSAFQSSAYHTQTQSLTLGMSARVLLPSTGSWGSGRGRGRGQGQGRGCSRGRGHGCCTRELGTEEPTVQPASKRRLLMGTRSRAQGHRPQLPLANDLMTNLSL
Further: nearly all actives have a fitted effect of over 50% in size.
Potency means the concentration at half of the fitted maximal effect; tags describe the fitted curve by direction and shape.

Row | Compound | Potency
1 | CCOc1ccc2nc(NCCNC(=O)Nc3ccccc3)c(C#N)cc2c1 | inconclusive: 14.1 µM [inhibitor, partial curve]
2 | COc1ccc(-c2cc(=NC(CC(C)C)C(=O)O)c3cc(C)ccc3o2)cc1 (stereo unspecified) | inconclusive: 25.1 µM [inhibitor, partial curve]
3 | O=C(CSc1nnc(-c2c[nH]c3ccccc23)o1)N1c2ccccc2CCc2ccccc21 | inactive
4 | CCN(CC)c1ccc2c(c1)oc(=O)c1c(Cl)cc(=O)oc12 | inactive
5 | Cc1ccc(NC(=O)c2c(C)nn(-c3ccccc3)c2Cl)c(C)c1 | inactive
6 | C=CCOc1cccc(CNc2ccc3[nH]c(=O)[nH]c3c2)c1 | inconclusive: 35.5 µM [inhibitor, single point]
7 | CSc1nc(Sc2ccc(Cl)cc2)c2ccccc2n1 | inconclusive: 39.8 µM [inhibitor, single point]
8 | Cc1ccc(-c2cc(-c3nnc(SCC(=O)N(C)CCC#N)n3N)c3ccccc3n2)cc1 | inconclusive: 28.2 µM [inhibitor, partial curve]
9 | CN1C=CC(=CC=C2C=CC(=O)C=C2)C=C1 | inconclusive: 28.2 µM [inhibitor, single point]
10 | COc1ccccc1NC(=O)C/C(C)=N/NC(=O)C12CC3CC(CC(C3)C1)C2 | inconclusive: 39.8 µM [inhibitor, single point]
11 | CC(C)C(=O)NC(=O)[C@@H]1CCCN1C(=O)/C=C/c1ccccc1 | inactive
12 | CCOC(=O)c1[nH]c2ccccc2c1NC(=O)CC(C)(C)C | inconclusive: 31.6 µM [inhibitor, partial curve]
13 | Fc1ccc(-c2ccc(/C=N\n3cnnc3)o2)cc1Cl | inactive
14 | Cc1ccccc1OCC(=O)Nc1cccc(N(C)S(C)(=O)=O)c1 | inactive
15 | CCOc1ccc2nc(NC(=S)NCc3ccccc3)sc2c1 | inactive
16 | CC(SCc1cc(=O)n2c([nH]c3ccccc32)c1C#N)C(=O)O (stereo unspecified) | inconclusive: 25.1 µM [inhibitor, partial curve]
17 | Cc1csc(=Nc2ccccc2)n1C | inactive
18 | CCC(=O)Nc1ccc2oc(-c3cccnc3)nc2c1 | inconclusive: 28.2 µM [inhibitor, partial curve]
19 | Cc1nc2sccc2c(=O)n1-c1cccc(Cl)c1 | inactive
20 | C/C(N)=C(/C#N)C(=O)COC(=O)c1cc(-c2cccc3ccccc23)nc2ccccc12 | inconclusive: 35.5 µM [inhibitor, partial curve]
21 | CCc1cccc(CC)c1NC(=S)Nc1ccc2cn[nH]c2c1 | inconclusive: 20 µM [inhibitor, partial curve]
22 | COC(=O)c1ccccc1NC(=S)NC(=O)c1ccccc1C | inconclusive: 25.1 µM [inhibitor, single point]
23 | CCOC(=O)C1CCCN(c2nc3ccccc3nc2C(C#N)C(=O)OCCOC)C1 (stereo unspecified) | inconclusive: 39.8 µM [inhibitor, single point]
24 | Cc1ccc(NC(=S)NCc2cccs2)cc1 | inactive
25 | Cc1ccnc(Nc2nc(-c3c(C)nc4sccn34)cs2)c1 | inconclusive: 15.8 µM [inhibitor, partial curve]
26 | Cc1cc(NS(=O)(=O)c2ccccc2)c(C)c(Cl)c1O | inactive

Row | Compound | Potency
27 | NC(=O)c1nc(-c2ccco2)nc2c1[nH]c(=O)n2-c1ccc(Cl)c(Cl)c1 | inconclusive: 35.5 µM [inhibitor, single point]
28 | CCN1CCN(c2nc3ccccc3nc2C(C#N)C(=O)OC2CCCCC2)CC1 (stereo unspecified) | inactive
29 | COc1ccc(C2CC(c3ccccc3)=NN2C(=O)CN2N=NC3C(=O)N(c4cccc(F)c4)C(=O)C32)cc1 (stereo unspecified) | inconclusive: 28.2 µM [inhibitor, single point]
30 | COc1cccc(C(=O)N2CCN(C3CCC(c4ccccc4)CC3)CC2)c1 (stereo unspecified) | inconclusive: 39.8 µM [inhibitor, single point]
31 | Cc1cccc(C2Nc3ccccc3C(=O)N2CCc2ccccc2)n1 (stereo unspecified) | inconclusive: 31.6 µM [inhibitor, partial curve]
32 | O=C(N/N=C/c1coc2ccccc2c1=O)c1cn(-c2ccccc2)nc1-c1ccccc1 | inactive
33 | O=C(NNc1cc(Cl)ccc1Cl)c1cccs1 | inactive
34 | CC(=O)Nc1cccc2c1C(=O)N(c1ccc(OC(C)=O)cc1)C2=O | inactive
35 | CCOC(=O)C1(Cc2cccc(Cl)c2)CCCN(C(=O)C2CC2)C1 (stereo unspecified) | inactive
36 | Cc1ccc(CNc2ccc(N3CCOCC3)cc2)s1 | inactive
37 | O=C1N/C(=N/Nc2ccccc2)S/C1=C\c1ccccc1 | inactive
38 | COc1ccc(C2CC(c3ccccc3)=NN2C(=O)COC(=O)c2cccc(S(=O)(=O)N3CCOCC3)c2)cc1 (stereo unspecified) | inconclusive: 31.6 µM [inhibitor, single point]
39 | CCCCNC(=O)CSc1nnc(-c2ccc(S(=O)(=O)N3CCCC3)cc2)n1C | inconclusive: 25.1 µM [inhibitor, partial curve]
40 | S=c1[nH]nc(-c2cccnc2)n1C1CCCCC1 | inactive
41 | Cc1cc(-c2ccccc2)nc(-c2ccccc2)c1C | inconclusive: 25.1 µM [inhibitor, single point]
42 | Cc1ccc(C(=O)Nc2ccccc2C(=O)NC2CCCCC2)cc1S(=O)(=O)N1CCOCC1 | inconclusive: 39.8 µM [inhibitor, single point]
43 | O=C(O)c1ccc(-n2cccc2/C=C2/NC(=O)N(c3cccc(Cl)c3)C2=O)cc1 | inactive
44 | Cn1c(=O)c2c(ncn2CCC(=O)N/N=C/c2cccnc2)n(C)c1=O | inactive
45 | CCC(=O)N(Cc1cc(=O)[nH]c2ccccc12)c1ccccc1C | inactive
46 | CCCC(=O)Nc1ccc2c(c1)C(=O)NC2=O | inconclusive: 31.6 µM [inhibitor, partial curve]
47 | CC(=O)OCC1=C(C(=O)O)N2C(=O)[C@@H](NC(=O)Cc3cccs3)[C@H]2SC1 | inactive
48 | COC(=O)c1ccc(N2CCOCC2)c(F)c1 | inactive
49 | COc1cc(O)c(C(CC(=O)N2CCCCC2)c2ccc3c(c2)OCO3)c(OC)c1 (stereo unspecified) | inactive
50 | OC[C@@H]1O[C@@H](n2cnc3c(N[C@H]4CCC[C@@H]4O)ncnc32)[C@H](O)[C@H]1O | inactive
51 | COc1ccc(/C=N/NC(=O)c2ccccc2F)cc1CN1CCN(c2ccc(F)cc2)CC1 | inactive
52 | CC(=O)N/C(=C/c1ccc2c(c1)OCO2)C(=O)NCC(=O)O | inconclusive: 35.5 µM [inhibitor, single point]

Row | Compound | Potency
53 | CC(=O)COc1cc(C)cc2oc(=O)cc(-c3ccccc3)c12 | inactive
54 | COc1ccc(/C=C2\N=C(SC)N(c3ccccc3OC)C2=O)cc1 | inconclusive: 39.8 µM [inhibitor, single point]
55 | CCOC(=O)c1c(C)nc2ncccn12 | inconclusive: 28.2 µM [inhibitor, partial curve]
56 | COc1ccc(S(=O)(=O)N2CCSC2c2ccccc2)cc1 (stereo unspecified) | inconclusive: 35.5 µM [inhibitor, single point]
57 | CCn1c(SCC(=O)N2CCC(C)CC2)nnc1-c1ccc(S(=O)(=O)N2CCN(C)CC2)cc1 | inconclusive: 28.2 µM [inhibitor, partial curve]
58 | Cc1ccc2nc(-c3ccc(NC(=O)C(C)N4C(=O)c5ccccc5C4=O)cc3)sc2c1 (stereo unspecified) | inconclusive: 31.6 µM [inhibitor, partial curve]
59 | CC1=C(C(=O)Nc2ccccc2)C(c2ccco2)C(C#N)=C(SCC(=O)Nc2cccc(C)c2C)N1 (stereo unspecified) | inconclusive: 35.5 µM [inhibitor, partial curve]
60 | Cc1cccc(CNc2ncnc3ccc(-c4cccc(NS(C)(=O)=O)c4)cc23)c1 | inconclusive: 25.1 µM [inhibitor, partial curve]
61 | NC(=O)c1sc2nc3c(c(-c4ccco4)c2c1N)CCC3 | inactive
62 | CCc1ccc(NC(=O)COc2ccc(Br)cn2)cc1 | inconclusive: 8.91 µM [inhibitor, partial curve, poor fit]
63 | COc1ccc(N2CCN(C(C)C(=O)N3CC(C)OC(C)C3)CC2)cc1 (stereo unspecified) | active: 22.4 µM
64 | N#C/C(=C(/O)CN1CCCC1)c1nc(-c2ccccc2)cs1 | inactive
65 | COc1ccc2[nH]c3c(c2c1)CCC/C3=N\N | inconclusive: 35.5 µM [inhibitor, single point]
66 | COc1ccc(CN2C(=O)c3ccccc3C(/C=N\OCc3ccc(F)cc3)C2=O)cc1 (stereo unspecified) | inconclusive: 39.8 µM [inhibitor, single point]
67 | CC(C)C(=O)Nc1ccc(C(=O)N/N=C/c2cc(Br)cc(Br)c2O)cc1 | inconclusive: 17.8 µM [inhibitor, partial curve]
68 | CCCCn1c(CCC(=O)O)ccc1-c1cccs1 | inconclusive: 28.2 µM [inhibitor, partial curve]
69 | COC(=O)C1=C2SCC(=O)N2C(N)=C(C#N)C1 | inconclusive: 35.5 µM [inhibitor, single point]
70 | CC(=O)c1c(Nc2ccc3c(c2)OCCO3)oc(C)cc1=O | inactive
71 | CC1(C)Oc2ccc3ccc(=O)oc3c2C[C@H]1O | inconclusive: 28.2 µM [inhibitor, partial curve]
72 | Cc1onc(-c2c(F)cccc2Cl)c1C(=O)ONC(=O)c1ccco1 | inconclusive: 35.5 µM [inhibitor, single point]
73 | COc1ccc(CCNC(=S)NC(=O)c2ccccc2)cc1OC | inactive
74 | CCOC(=O)c1cnc(-c2ccccc2O)nc1Cl | inconclusive: 28.2 µM [inhibitor, single point]
75 | C=CCOc1c2ccc(C(=O)N(CC)c3ccc(OC)cc3)cc2nn1C | inconclusive: 25.1 µM [inhibitor, partial curve]
76 | COc1ccccc1CCn1c(N)c(C#N)c2nc3ccccc3nc21 | inconclusive: 25.1 µM [inhibitor, partial curve]
